# Assay results taken from PMC6919601, “Identification of Plasmodium dipeptidyl aminopeptidase allosteric inhibitors by high throughput screening” (PLoS ONE, 2019).
# In all, about 110,000 compounds went through this assay and about 230 (0.21%) showed an effect of 50% or more. Some of the results follow.
# Biological target: DPAP1 (Plasmodium falciparum, UniProt Q8IIJ9)
# Test: primary screen, percent inhibition; read by cleavage of a fluorogenic dipeptide substrate; higher = more effect of the substance
# Set-up: species or system P. falciparum D10 trophozoite lysates; single well
# 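Further: 30 min substrate incubation versus DMSO and 10 µM JCP410 controls.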
# Chain of DPAP1 (Q8IIJ9 whole entry, looked up): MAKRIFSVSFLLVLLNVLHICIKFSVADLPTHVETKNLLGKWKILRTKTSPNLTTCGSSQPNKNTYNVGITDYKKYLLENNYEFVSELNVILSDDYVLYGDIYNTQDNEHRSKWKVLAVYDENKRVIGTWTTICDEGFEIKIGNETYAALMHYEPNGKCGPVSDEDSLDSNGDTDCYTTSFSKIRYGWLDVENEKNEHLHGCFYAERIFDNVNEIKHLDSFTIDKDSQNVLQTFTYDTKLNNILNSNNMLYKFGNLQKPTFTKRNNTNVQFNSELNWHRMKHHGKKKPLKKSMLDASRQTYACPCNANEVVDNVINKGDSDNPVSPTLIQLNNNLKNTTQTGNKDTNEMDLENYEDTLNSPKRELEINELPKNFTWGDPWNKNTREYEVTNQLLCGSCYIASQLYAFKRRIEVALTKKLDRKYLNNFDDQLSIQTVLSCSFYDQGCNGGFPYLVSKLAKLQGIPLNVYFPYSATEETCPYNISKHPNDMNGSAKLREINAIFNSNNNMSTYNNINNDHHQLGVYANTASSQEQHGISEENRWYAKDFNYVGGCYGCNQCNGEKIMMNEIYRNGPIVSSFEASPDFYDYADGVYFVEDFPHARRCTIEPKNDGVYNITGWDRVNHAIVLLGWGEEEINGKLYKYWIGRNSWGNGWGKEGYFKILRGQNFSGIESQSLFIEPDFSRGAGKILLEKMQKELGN
row,SMILES,% Inhibition @ 10 uM [%]
1,COc1cccc(CNCc2ccc(C(=O)O)s2)c1,-0.637
2,COc1ccc(NC2C3CC4CC(C3)CC2C4)cc1OC (centres unmarked),-7.87
3,Cc1nn2c(N)c(-c3ccc(Cl)cc3)cnc2c1-c1ccccc1,4.11
4,CCc1ccccc1NC1=C(Cl)C(=O)N(Cc2ccccc2)C1=O,-2.46
5,CCCCOC(=O)c1ccc(CC(=O)c2ccc(O)cc2O)o1,-1.29
6,Clc1ccc(CNc2nc(N3CCCC3)nc(N3CCCC3)n2)cc1,-2.72
7,Cc1cccc(OCCCc2c(C)n[nH]c2C)c1C,1.74
8,Cc1cccc(CCNC(=O)[C@@H](c2ccccc2)N2Cc3ccccc3C2=O)c1,-6.03
9,CC(C)CC(NC(=O)c1ccccc1C(F)(F)F)C(=O)NCC#N (centres unmarked),-6.68
10,Cn1nc(-c2ccccc2F)c2cc(C(=O)NCCCN3CCCC3=O)sc21,-3.23
11,COc1ccc2[nH]cc(CCNC(=O)C3CCN(c4cnccn4)CC3)c2c1,-4.71
12,CC(C)C(=O)Nc1ccc(NC(=O)c2ccccc2Br)cc1,1.64
13,O=C(O)c1cc(-c2ccccc2Cl)nc2ccccc12,1.4
14,N#CC1=C(N)N(c2cccnc2)C2=C(C(=O)CC(c3ccccc3)C2)C1c1cccc(Br)c1 (centres unmarked),3.79
15,CCc1cc2c(N3CCN(C)CC3)ncnc2s1,-7.6
16,O=C(C1=C(O)C(=O)N(c2ccccn2)C1c1ccccc1)c1cccs1 (centres unmarked),-0.0619
17,NC(=O)C1CCN(c2c(C(=O)c3ccccc3)cnc3ccc(F)cc23)CC1,-4.34
18,CCNS(=O)(=O)c1ccc(NC(=O)c2ccc(Cn3nc(C)cc3C)o2)cc1,-2.6
19,COc1ccc(CNC(=O)c2cc(S(=O)(=O)N3CCCC3)c[nH]2)cc1,-4.99
20,COc1cc(CNc2ccc(F)cc2)ccc1OCC(=O)NC(C)(C)C,1.64
21,O=C(CCN1C(=O)c2ccccc2C1=O)Nc1ccccc1Oc1ccccc1,-2.68
22,O=C(NCc1cccs1)C1CC(=O)N(c2ccccc2)C1 (centres unmarked),-4.7
23,CC(C)N1CSCC1COc1cccc2ccccc12 (centres unmarked),0.635
24,COc1cc2oc3ccccc3c2cc1N(CC(=O)N1CCCCC1)S(=O)(=O)c1ccccc1,0.231
25,Cc1ccnc2nc(NC(=O)C3CCCO3)nn12 (centres unmarked),2.05
26,CCC[C@H](NC(=O)C1(NC(=O)N2CCN(C(C)(C)C)CC2)CCCCC1)C(=O)c1nnc(COC)o1,-10.1

row,SMILES,% Inhibition @ 10 uM [%]
1,O=C(NC1CCCCCC1)C1CCC(CNS(=O)(=O)c2cccs2)CC1 (centres unmarked),-3.87
2,CN(C)CCC(=O)c1ccc(O)cc1,-0.807
3,Cc1ccc(NC(=O)CSc2nc(N)cc(O)n2)cc1,-0.725
4,N=c1c2nc(-c3ccco3)nc(O)c2[nH]c(=O)n1-c1ccccc1,-1.43
5,CC(C)CC(C(=O)NCC#N)c1cccc(NC(=O)OCCN2CCOCC2)c1 (centres unmarked),-7.36
6,CCN(CC)C(=O)C1(O)c2ccccc2NC(=O)N1c1ccccc1 (centres unmarked),-4.06
7,O=C(O)C1C2C=CC(C2)C1C(=O)NCCCn1ccnc1 (centres unmarked),-0.116
8,COc1ccc(S(=O)(=O)Nc2cccc(N(C)S(C)(=O)=O)c2)c(Cl)c1Cl,4.37
9,COc1cccc(C2C(C(=O)c3ccc4c(c3)CC(C)O4)=C(O)C(=O)N2CC2CCCO2)c1 (centres unmarked),1.27
10,Cc1cccc(C)c1OCCCCCCN1CCOCC1,-1.17
11,Cc1c2cnn(CC(=O)NCCCN3CCOCC3)c(=O)c2c(C)n1Cc1ccccc1Cl,-5.81
12,O=C(CCNS(=O)(=O)c1ccc2nc(O)ccc2c1)Nc1nccs1,-0.544
13,COc1ccc(/C(O)=C/C=N/c2cccc(O)c2)cc1OC,8.62
14,COc1ccc(C2C(=O)N(C3CCCCCC3)CC(=O)N2Cc2ccccc2Cl)cc1 (centres unmarked),-2.26
15,CCN(CC)CCCNC(=O)c1cc(-c2ccc(C)cc2)on1,-5.2
16,C=CCc1cc(OC)ccc1OCCOCCN1CCC(C)CC1,4.84
17,O=C(Nc1ccccc1)c1ccc2nc3ccccc3nc2c1,5.42
18,CCOC(=O)N1CCN(c2c(NC3CCN(Cc4ccccc4)CC3)c(=O)c2=O)CC1,0.277
19,COc1ccc(-c2nn(-c3ccccc3)cc2C(=O)N(C)C)cc1,-3.28
20,Cc1ccc(OCC(=O)Nc2nc(C)c(C)s2)cc1C,3.62
21,Cc1oc(-c2cccs2)nc1CS(=O)CC(=O)NCc1ccccc1 (centres unmarked),-5.58
22,CCOc1cc(C)nc(-c2ccccc2)n1,-3.27
23,O=C(COc1ccccc1)Nc1ccc2c(c1)C(=O)NC2=O,2.76
24,CC1=C(C(=O)OCCc2ccccc2)C(c2ccc(Cl)cc2Cl)NC(=O)N1 (centres unmarked),-3.82
25,O=C(NC1CCCC1)c1ccc(COc2cccc3ccccc23)o1,-11.4
26,CCOC(=O)N1CCC(N2CCN(S(C)(=O)=O)CC2)CC1,-1.26

row,SMILES,% Inhibition @ 10 uM [%]
1,CCC/C(=N\c1ccccc1OC)C1=C(O)CCCC1=O,4
2,c1nc(N2CCOCC2)c2nc3n(c2n1)CCCCC3,-3.5
3,COc1ccc(-c2nc(CS(=O)CC(=O)NCCCSC3CCCCC3)c(C)o2)cc1OC (centres unmarked),-3.7
4,CC1=C(C(=O)OCCc2ccccc2)C(c2ccccc2F)NC(=O)N1 (centres unmarked),4.98
5,CC1CCCC(C)N1CCNC(=O)c1ccc2c(c1)ncn2C1CCCC1 (centres unmarked),-3.12
6,Cc1ccc(C)c(NC(=O)c2cccnc2)c1,0.311
7,O=[N+]([O-])c1cccc(NC2OC(CO)C(O)C2O)c1 (centres unmarked),-0.0217
8,COc1ccccc1C(=O)N1CCN(S(=O)(=O)c2ccc3ccccc3c2)CC1,-4.93
9,NC(=O)C1CCN(C(=O)COCc2cc(-c3cccs3)on2)CC1,-6.73
10,CCCCCOC(=O)c1ccc2c(c1)C(=O)N(c1cccc([N+](=O)[O-])c1)C2=O,-0.771
11,COc1ccc(C2C(C(=O)c3ccc(C)o3)=C(O)C(=O)N2Cc2ccco2)cc1OC (centres unmarked),-5.83
12,CCOC(=O)c1cc(S(=O)(=O)NC(C)(C)C)cn1C,-6.59
13,COc1ccc(-n2c(C)cc(/C=C3/NC(=O)N(Cc4ccccc4)C3=O)c2C)cc1,-2.21
14,O=C(c1cc2cc(Br)cc(Br)c2oc1=O)N1CCCCCC1,-0.261
15,CCCCN1C(=O)NC(NC(=O)c2cccc(Cl)c2)(C(F)(F)F)C1=O (centres unmarked),-0.173
16,COc1cc(OC)cc(C(=O)N2CCN(C3CCCC3)CC2)c1,0.392
17,CCOc1ccccc1CNC(=O)CSc1nnc(C)c2c(C)n(-c3ccc(Cl)cc3)nc12,-0.165
18,O=C(C1CCCO1)N1N=C(c2ccc(Br)cc2)CC1c1ccco1 (centres unmarked),5.03
19,CCCS(=O)(=O)N1CCC(C(=O)Nc2ccc(C)cc2)CC1,0.361
20,COc1ccc2c(C)c(C(=O)O)oc2c1,-3.65
21,CCOc1ccc(S(=O)(=O)Nc2ccc(S(=O)(=O)Nc3cccc4ccccc34)cc2)cc1,-11
22,O=C(c1ccc(CNS(=O)(=O)c2cccc(C(F)(F)F)c2)cc1)N1CCCCC1,4.57
23,COc1ccc(C(=O)Nc2ccc(C)c(F)c2)cc1,-5.23
24,CC1CCCN(C(c2ccc(F)cc2)c2c(O)nc(O)nc2O)C1 (centres unmarked),-4.03
25,O=C(CCCOc1ccccc1)Nc1cc(Cl)cc(Cl)c1,-1.63
26,CC(=O)N1CC(=O)N(OCc2ccccc2)C1c1ccc(Cl)cc1Cl (centres unmarked),1.25

row,SMILES,% Inhibition @ 10 uM [%]
1,O=C(NCCCN1CCN(Cc2ccccc2)CC1)c1nnc(Cc2ccc3c(c2)OCO3)o1,3
2,O=C1CC(c2ccsc2)c2c(O)nc3nc4ccccc4n3c2N1 (centres unmarked),1.84
3,Cc1ccccc1-c1nc2s/c(=C\c3cccs3)c(=O)n2n1,-2.98
4,Cc1ccc(CNC(=O)CN(Cc2ccccc2)S(=O)(=O)c2ccc3nc(C)sc3c2)cc1,-1.74
5,COc1ccc(OC)c(CN2CCN(Cc3ccc(C)cc3)CC2)c1,13.5
6,COc1ccc(CNC(=O)CN(c2cccc(F)c2)S(C)(=O)=O)cc1,9.94
7,COc1ccc(C(=O)Cn2c(=N)n(Cc3ccc(C)cc3)c3ccccc32)cc1,-5.69
8,COc1ccc(-[n+]2c(=O)c(Cc3ccccc3)c(O)n3nc(-c4ccccc4)c(O)cc32)cc1,2.42
9,CCN(CC)S(=O)(=O)c1cc(C(=O)O)ccc1Cl,-0.546
10,CC(C)(C)C(=O)/N=C(\N)Nc1nc2ccccc2s1,2.26
11,N#CC1=C(N)OC2=C(C(=O)CC(c3ccccc3)C2)C1c1ccc(Cl)cc1 (centres unmarked),3.1
12,Cc1ccc2nc(NC(C)C34CC5CC(CC(C5)C3)C4)c3nnnn3c2c1 (centres unmarked),-4.66
13,O=C(COc1ccc(C(=O)Nc2cccc(C(F)(F)F)c2)cc1)NCc1ccccc1,-2.09
14,CSc1nnc(-c2ccc(C)cc2)o1,9.47
15,COc1ccccc1C1NC(=O)c2[nH]nc(-c3ccc(C)cc3)c21 (centres unmarked),3.53
16,CSc1nc2c(c(=O)n1C)C1(CCCCC1)Cc1ccccc1-2,-3.77
17,Brc1ccccc1CN1CCC(N2CCCCC2)CC1,-5.31
18,CC1CCc2nc(N)c(C#N)c(-c3ccncc3)c2C1 (centres unmarked),-1.33
19,Cc1cc(NC(=O)COc2ccccc2C)no1,0.189
20,Cc1sc(Nc2cccc3ccccc23)nc1-c1ccc(Cl)cc1,-1.74
21,COc1ccc(C(=O)Nc2ccc(NC(C)=O)cc2)cc1Br,-2.83
22,Cc1c(C(=O)N2CCc3ccccc32)cccc1[N+](=O)[O-],2.22
23,CC(C)=C1C2CCC1C1C(=O)N(CCc3ccccc3)C(=O)C21 (centres unmarked),0.82
